# Source: ChEMBL document CHEMBL5606460, “ASAP - DENV-2 NS2B-NS3 protease fluorescence single point” (2024)
# The campaign covered roughly 2,000 compounds. About 110 (5.5%) showed an effect of 50% or more. This is one part of the list.
# Target: Genome polyprotein (dengue virus type 2) (UniProt P29990)
# [1] = Thailand/16681/1984, Concentration 25.0 uM, Number of replicates 1.0
compound,measurement,setting,value
CC(F)(F)c1cc(C(=O)N2CC(NC(=O)c3ccc4[nH]ncc4c3Cl)C2)[nH]n1,inhibition,"Thailand/16681/1984, Concentration 49.5 uM, Number of replicates 2.0, Standard deviation 1.1119212446710598 %",-0.541%
same,inhibition,"Thailand/16681/1984, Concentration 99.01 uM, Number of replicates 2.0, Standard deviation 1.228392627538066 %",0.751%
same,inhibition,"Thailand/16681/1984, Concentration 198.0 uM, Number of replicates 2.0, Standard deviation 0.6727041632084392 %",3.47%
O[C@]1(C(F)(F)F)CC[C@H](CNCc2nnc3ccccn23)CC1,inhibition,"Thailand/16681/1984, Concentration 49.5 uM, Number of replicates 2.0, Standard deviation 2.244095461971029 %",4.51%
same,inhibition,"Thailand/16681/1984, Concentration 99.01 uM, Number of replicates 2.0, Standard deviation 1.4092400656614155 %",4.61%
same,inhibition,"Thailand/16681/1984, Concentration 198.0 uM, Number of replicates 2.0, Standard deviation 2.783814769891106 %",1.75%
CC(C)(CO)NC(=O)c1cc(Cl)cc(NC(=O)[C@@H](N)c2cccc(Cl)c2)c1,inhibition,"Thailand/16681/1984, Concentration 49.5 uM, Number of replicates 2.0, Standard deviation 0.0079840461008127 %",0.838%
same,inhibition,"Thailand/16681/1984, Concentration 99.01 uM, Number of replicates 2.0, Standard deviation 0.8566436311158055 %",1.65%
same,inhibition,"Thailand/16681/1984, Concentration 198.0 uM, Number of replicates 2.0, Standard deviation 1.319249969182289 %",3.6%
O=Cc1ccc(N2CCC(C(=O)NCc3ccc4c(c3)OCO4)CC2)cc1,inhibition,[1],10.6%
Cc1cc(CO)c2cccc(Cc3cccc(NC(=O)[C@@H](N)c4ccsc4)c3)c2n1,inhibition,"Thailand/16681/1984, Concentration 49.95 uM, Number of replicates 2.0, Standard deviation 0.6161503417647632 %",2.81%
same,inhibition,"Thailand/16681/1984, Concentration 99.9 uM, Number of replicates 2.0, Standard deviation 3.7023066252668286 %",10.5%
N#Cc1ccc(NC(=O)C2CCN(c3ccc(C=O)cc3)CC2)c(I)c1,inhibition,[1],13.4%
Cc1cc(CO)c2cccc(Cc3ccccc3C(=O)NCCc3ncc[nH]3)c2n1,inhibition,"Thailand/16681/1984, Concentration 49.95 uM, Number of replicates 2.0, Standard deviation 0.3032711887954129 %",14.1%
same,inhibition,"Thailand/16681/1984, Concentration 99.9 uM, Number of replicates 2.0, Standard deviation 0.18110062477906652 %",34.2%
Cc1cc(CO)c2cccc(Cc3ccccc3C(=O)N[C@@H](CCC(N)=O)C(=O)O)c2n1,inhibition,"Thailand/16681/1984, Concentration 49.95 uM, Number of replicates 2.0, Standard deviation 0.9816783263695582 %",12.6%
same,inhibition,"Thailand/16681/1984, Concentration 99.9 uM, Number of replicates 2.0, Standard deviation 0.9155644195718532 %",39.4%
CCn1nnc(CNC(=O)[C@]2(c3ccc(F)cc3)CCCNC2)n1,inhibition,"Thailand/16681/1984, Concentration 49.5 uM, Number of replicates 2.0, Standard deviation 1.1683531247452816 %",-5.23%
same,inhibition,"Thailand/16681/1984, Concentration 99.01 uM, Number of replicates 2.0, Standard deviation 1.0798737399041796 %",-5.26%
same,inhibition,"Thailand/16681/1984, Concentration 198.0 uM, Number of replicates 2.0, Standard deviation 1.100128166599363 %",-5.3%
COc1cc(Cc2c(-c3ccc(F)cc3)noc2C)nc(N2CCNCC2)n1,inhibition,"Thailand/16681/1984, Concentration 49.5 uM, Number of replicates 2.0, Standard deviation 0.4285559202279565 %",-0.048%
same,inhibition,"Thailand/16681/1984, Concentration 99.01 uM, Number of replicates 2.0, Standard deviation 0.4007548684992308 %",1.07%
same,inhibition,"Thailand/16681/1984, Concentration 198.0 uM, Number of replicates 2.0, Standard deviation 0.4757654271085549 %",6.24%
NCC1(c2ccccn2)CCCC1,inhibition,"Thailand/16681/1984, Concentration 49.8 uM, Number of replicates 2.0, Standard deviation 1.2603836344545174 %",-6.98%
same,inhibition,"Thailand/16681/1984, Concentration 99.5 uM, Number of replicates 2.0, Standard deviation 0.09857237494770278 %",-5.92%
COc1cccc2c1OC[C@@H](NC(=O)C1CCN(c3ccc(C=O)cc3)CC1)C2,inhibition,[1],0.719%
N=C(N)NC[C@@H]1CCCN(C(=O)[C@H](Cc2ccc(CN)cc2)NC(=O)c2ccccc2)C1,inhibition,"Thailand/16681/1984, Concentration 49.5 uM, Number of replicates 2.0, Standard deviation 0.13440233809748103 %",-1.91%
same,inhibition,"Thailand/16681/1984, Concentration 99.01 uM, Number of replicates 2.0, Standard deviation 0.15262642465934906 %",-0.682%
same,inhibition,"Thailand/16681/1984, Concentration 198.0 uM, Number of replicates 2.0, Standard deviation 0.32119894086540085 %",4.21%
O=C(O)c1cnn(C2CCN(C(=O)c3ccnc4[nH]cnc34)CC2)c1,inhibition,"Thailand/16681/1984, Concentration 49.5 uM, Number of replicates 2.0, Standard deviation 1.214191700010942 %",-2.48%
same,inhibition,"Thailand/16681/1984, Concentration 99.01 uM, Number of replicates 2.0, Standard deviation 1.7130868961137902 %",-2.88%
same,inhibition,"Thailand/16681/1984, Concentration 198.0 uM, Number of replicates 2.0, Standard deviation 1.3863533153956358 %",-2.86%
CC(C)(C)C(=O)Nc1cccc(C(=O)O)c1,inhibition,"Thailand/16681/1984, Concentration 49.5 uM, Number of replicates 2.0, Standard deviation 0.010982962959756854 %",-2.02%
same,inhibition,"Thailand/16681/1984, Concentration 99.01 uM, Number of replicates 2.0, Standard deviation 1.054356857703926 %",-1.86%
same,inhibition,"Thailand/16681/1984, Concentration 198.0 uM, Number of replicates 2.0, Standard deviation 0.5997610339591201 %",-0.485%
CNc1ccc(-c2ccccc2C(=O)Nc2cnn(C)c2)cn1,inhibition,"Thailand/16681/1984, Concentration 49.5 uM, Number of replicates 2.0, Standard deviation 1.2314105420889765 %",-3.97%
same,inhibition,"Thailand/16681/1984, Concentration 99.01 uM, Number of replicates 2.0, Standard deviation 1.5090910074055448 %",-2.29%
same,inhibition,"Thailand/16681/1984, Concentration 198.0 uM, Number of replicates 2.0, Standard deviation 0.6382728010796465 %",-1.71%
NC(=O)c1cccc(NC(=O)[C@@H](NC(=O)c2ccc(Oc3ccc(C(F)(F)F)cc3)cc2)c2ccc(OCc3ccccc3)cc2)c1,inhibition,"Thailand/16681/1984, Concentration 49.5 uM, Number of replicates 2.0, Standard deviation 0.7362133947681709 %",6.2%
same,inhibition,"Thailand/16681/1984, Concentration 99.01 uM, Number of replicates 2.0, Standard deviation 0.5343411171689955 %",12.7%
same,inhibition,"Thailand/16681/1984, Concentration 198.0 uM, Number of replicates 2.0, Standard deviation 1.7800185360663037 %",24.8%
NCc1cccc(NC(=O)[C@H]2CCCN(C(=O)OCc3ccccc3)C2)c1,inhibition,"Thailand/16681/1984, Concentration 49.5 uM, Number of replicates 2.0, Standard deviation 3.575781554229458 %",-3%
same,inhibition,"Thailand/16681/1984, Concentration 99.01 uM, Number of replicates 2.0, Standard deviation 3.242498563986953 %",-2.54%
same,inhibition,"Thailand/16681/1984, Concentration 198.0 uM, Number of replicates 2.0, Standard deviation 3.6104892521705123 %",-2.81%
O=Cc1ccc(N2CCC(C(=O)N3CCNC(=O)C34CCCCC4)CC2)cc1,inhibition,[1],13.7%
O=Cc1ccc(N2CCC(C(=O)NC[C@H](O)c3ccc(O)cc3)CC2)cc1,inhibition,[1],11.3%
O=Cc1ccc(N2CCC(C(=O)Nc3c(Cl)cncc3Cl)CC2)cc1,inhibition,[1],12.4%
Cc1ccc(CNC(=O)C2CCN(c3ccc(C=O)cc3)CC2)c(F)c1F,inhibition,[1],5.18%
O=Cc1ccc(N2CCC(C(=O)NCc3coc(-c4ccccc4)n3)CC2)cc1,inhibition,[1],6.6%
O=Cc1ccc(N2CCC(C(=O)NCCCc3cccc(C(F)(F)F)c3)CC2)cc1,inhibition,[1],7.75%
